# From PubChem BioAssay AID624170 (National Center for Advancing Translational Sciences (NCATS), 2012)
# Screen size: about 410,000 compounds; about 850 (0.21%) were called active. Inconclusive results, whose numbers are uncertain, are shown with a selection of clear calls. Calls come from the whole dose curve; as a rule, active = well fitted inhibition curve with a large enough effect; inconclusive = small, poorly fitted or top-dose-only effect, or another doubt; inactive = no such curve, though single readings can be large or run the other way. No potency is given beside an inconclusive call; the fits are too rough. Square brackets hold non-standard residues; d marks the D form. Peptide text beside a SMILES is read from it. * marks the point of attachment. Phe(4-Me) = Cc1ccc(C[CH](N)C(=O)O)cc1; Bz = O=C(c1ccccc1)*
# Molecular target: Glutaminase kidney isoform, mitochondrial (Homo sapiens) (UniProt O94925)
# Chain of UniProt O94925 (O94925 whole entry, looked up, canonical isoform): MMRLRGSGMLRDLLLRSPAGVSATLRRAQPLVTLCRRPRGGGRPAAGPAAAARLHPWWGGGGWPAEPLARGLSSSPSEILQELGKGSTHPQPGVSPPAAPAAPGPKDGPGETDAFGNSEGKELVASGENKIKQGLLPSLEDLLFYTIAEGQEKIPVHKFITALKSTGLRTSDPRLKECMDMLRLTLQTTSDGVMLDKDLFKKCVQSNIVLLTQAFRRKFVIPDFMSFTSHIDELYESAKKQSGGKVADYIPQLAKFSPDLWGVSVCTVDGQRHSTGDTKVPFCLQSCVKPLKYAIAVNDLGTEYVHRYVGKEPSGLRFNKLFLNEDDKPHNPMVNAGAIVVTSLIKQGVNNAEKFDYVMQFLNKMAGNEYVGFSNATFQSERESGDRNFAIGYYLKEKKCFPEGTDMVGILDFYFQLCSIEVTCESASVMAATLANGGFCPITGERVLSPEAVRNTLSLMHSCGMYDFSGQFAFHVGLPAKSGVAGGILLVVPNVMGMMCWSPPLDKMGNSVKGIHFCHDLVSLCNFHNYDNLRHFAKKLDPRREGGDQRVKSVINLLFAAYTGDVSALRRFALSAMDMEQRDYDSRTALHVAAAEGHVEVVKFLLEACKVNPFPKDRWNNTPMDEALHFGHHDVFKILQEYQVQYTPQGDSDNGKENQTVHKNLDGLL
# Test: qHTS for Inhibitors of Glutaminase (GLS)
# Settings: GLS enzymatic activity, qHTS titration; series mostly up to 45.5 µM; activity change, negative = inhibition: at the top concentration
# Source text: Glutaminase (GLS) catalyzes the hydrolysis of glutamine into glutamate and ammonia. It plays a critical role in glutaminolysis, which is an important energy source for proliferating cells. It was shown that c-Myc, an oncogenic transcription factor known to regulate microRNAs and to stimulate cell proliferation, increases glutamine metabolism by stimulating the expression of GLS via direct suppression of miR23a and miR23b.
# GLS is also thought to play a pathogenic role on HAD using a human HIV-1 infected macrophage system. […] GLS inhibition limits glutamate release and provides neuroprotection against HIV-1 infected macrophages.
# The overall goal of this project is to identify small molecule inhibitors of GLS through quantitative high throughput screening (qHTS) of the MLSMR. A validated potent and selective inhibitor can be used as a tool molecule to further study the pharmacology of its target as well as explore its potential therapeutic application in cancer and inflammatory neurological disorders, such as HIV1-associated dementia (HAD) and multiple sclerosis.
# NIH Chemical Genomics Center [NCGC]
# NIH Molecular Libraries Probe Centers Network [MLPCN]
# Assay Submitter (PI): Barbara S. Slusher, Johns Hopkins University
# Three 3 uL of hKGA is dispensed into black well 1536-well plates in 45 mM KH2PO4 (pH 8.2), 0.02% Tween-20. Then 23 nL of compounds are added through pin tool transfer. To this, 1 uL of 1mM L-Glutamine and 1 uL of a solution of L-Glutamateoxidase, HRP, Amplex red are added. Plate is centrifuged for 25 sec before an initial fluorescence read is obtained on the ViewLux, after 30 min of RT incubation, the final read is taken on the ViewLux.
# % is set by controls: 0 for no effect and ±100 for the full control effect; potency is the fitted concentration of half-maximal effect; tags give direction and shape of the fitted curve.
SMILES,Potency,"activity change, negative = inhibition"
O=c1cc(-c2ccc(F)cc2)nc(SCc2nc(-c3cccc(Cl)c3)no2)[nH]1,"inconclusive [inhibitor, full curve, poor fit]",–
COc1ccc(NC(=O)CCn2nc(-c3ccccc3OC)c3c(C)cc(C)nc32)cc1,–,inactive: -11.2%
Cc1ccc2[nH]cc(C(=O)CCl)c2c1,–,inactive: -0.447%
CSCC[C@H](NC(=O)CCn1nnc2ccccc2c1=O)C(=O)O,"inconclusive [inhibitor, single point]",–
Cc1c(Cl)sn(-c2ccc(Cl)cc2)c1=O,"inconclusive [inhibitor, single point]",–
CC1Cc2ccccc2N1Cc1cc(=O)n2ccsc2n1 (centres undefined),"inconclusive [inhibitor, partial curve, poor fit]",–
Cc1cccc(NC(=O)c2sc3nc4c(cc3c2N)CN(Cc2ccccc2)CC4)c1,–,inactive: -9.16%
CCOC(=O)N1CCN(C(=O)CSc2nnc(-c3cc(OC)ccc3OC)o2)CC1,"inconclusive [inhibitor, single point]",–
Cc1cc(NS(=O)(=O)c2ccc(Nc3nc(-c4sc(N)nc4C)cs3)cc2)no1,"inconclusive [inhibitor, single point]",–
COC(=O)c1c(C)[nH]c(C(=O)COc2ccc3ccc(=O)oc3c2)c1C,"inconclusive [inhibitor, single point]",–
CCOC(=O)c1ccc(N2C(=O)c3[nH]nc(-c4ccc(C)cc4)c3C2c2cccs2)cc1 (centres undefined),–,inactive: 11.3%
Cn1c(=O)c2c([nH]c(=S)n2CCCc2ccccc2)n(C)c1=O,"inconclusive [inhibitor, partial curve, poor fit]",–
c1ccc(-c2csc(Nc3cccnc3)n2)cc1,"inconclusive [inhibitor, partial curve]",–
COc1ccc(-n2c(=O)c3sc4ccccc4c3n(C)c2=O)cc1,–,inactive: -0.142%
C[C@H]1COC2=C1C(=O)C(=O)c1c2ccc2c1CCCC2(C)C,–,inactive: -3.77%
COC(=O)C1C(=O)C2=C(CC1C)NC(=O)CC2c1ccc(F)cc1 (centres undefined),–,inactive: 0%
O=C(COC(=O)CCC(=O)c1ccc(Cl)cc1)NCc1ccco1,–,inactive: -4.54%
CNC(=O)COC(=O)c1cc(-c2ccco2)nc2ccccc12,"inconclusive [inhibitor, partial curve]",–
O=C(COC(=O)C1CC2C=CC1C2)NCc1ccco1 (centres undefined),"inconclusive [inhibitor, single point]",–
C=CC(=O)Nc1ccc(N(C)c2ccnc(Nc3ccc(N4CCN(C)CC4)cc3)n2)cc1,–,inactive: 43%
CCOC(=O)c1sc(NC(=O)/C=C/c2ccc(F)cc2)nc1C,"inconclusive [inhibitor, partial curve]",–
CCc1ccc(C(=O)NNc2ccc(F)cc2F)cc1,"inconclusive [inhibitor, partial curve, poor fit]",–
O=C(CN1CCN(c2ccccc2F)CC1)NC(=O)NC1CCCCC1,–,inactive: 4.45%

SMILES,Potency,"activity change, negative = inhibition"
N=C1N=C(N)c2cc3ccccc3cc21,–,inactive: -4.3% [at 99.4 µM]
CCC(C(=O)NCCc1ccccc1)n1nc(C)c2sc3ccccc3c2c1=O (centres undefined),–,inactive: 0.0975%
Cc1onc(-c2c(Cl)cccc2Cl)c1C(=O)NNc1ccccc1,"inconclusive [inhibitor, single point]",–
Cc1oc(-c2cccc(Cl)c2)nc1CS(=O)(=O)CC(=O)NC1CC1,–,inactive: 6.48%
O=C(/C=C1\NC2(CCCC2)Cc2ccccc21)C(=O)N/N=C/c1ccc(O)c(O)c1,"inconclusive [inhibitor, single point]",–
Oc1ccc2c(c1)c1c3n2CCNC3CCC1 (centres undefined),"inconclusive [inhibitor, partial curve, poor fit]",–
OCCNCCSc1nc(C2CCCCC2)n(-c2ccccc2Cl)n1,"inconclusive [inhibitor, single point]",–
Cc1ccccc1Nc1nnc(SCC(=O)NC(=O)NCc2ccco2)s1,"inconclusive [inhibitor, single point]",–
CCC(C(=O)N1CCN(c2cccc(Cl)c2)CC1)c1ccccc1 (centres undefined),–,inactive: 8.57%
CCOc1ccc(C(=O)NNC2CC(=O)N(Cc3ccc(Cl)cc3)C2=O)cc1OC (centres undefined),"inconclusive [inhibitor, partial curve, poor fit]",–
CCCCn1cnc2cc(NCc3ccccc3Cl)ccc21,"inconclusive [inhibitor, partial curve]",–
O=C(O)C(O)c1ccco1 (centres undefined),"inconclusive [inhibitor, single point]",–
O=C1/C(=C\c2cccnc2)CCc2ccccc21,–,inactive: -6.4%
CN(C)CCCN1C(=O)c2oc3ccc(Cl)cc3c(=O)c2C1c1cccnc1 (centres undefined),–,inactive: -6.45%
COc1cc(/C=C2/SC(=Nc3ccc(O)cc3)NC2=O)cc(OC)c1O,"inconclusive [inhibitor, full curve]",–
CC1=NN(C(N)=S)C(=O)C1N=Nc1c(C)n(C)n(-c2ccccc2)c1=O (centres undefined),"inconclusive [inhibitor, partial curve]",–
COc1ccc(N2CCN(Cc3nnc(-c4cccc(Br)c4)o3)CC2)cc1,–,inactive: 27.3%
CCN(Cc1ccccc1)C(=O)C1CCN(Cc2ccc(OC)c(OC)c2OC)CC1,"inconclusive [inhibitor, single point]",–
Cc1ccc(NC(=O)CN2C(=O)N/C(=C/c3cc(C)n(-c4cccc(C(=O)O)c4)c3C)C2=O)cc1,"inconclusive [inhibitor, single point]",–
O=C(Nc1nc2ccccc2s1)c1cnccn1,"inconclusive [inhibitor, single point]",–
COc1ccc(OC)c2sc(N(Cc3cccnc3)C(=O)c3ccco3)nc12,"inconclusive [inhibitor, single point]",–
Cc1ccc2nc(COc3ccccc3NC(=O)c3ccc(F)cc3)cc(=O)n2c1,–,inactive: 5.88%
CNC(=S)N/N=C/c1ccc(-c2cccc(C(=O)O)c2)o1,"inconclusive [inhibitor, single point]",–

SMILES,Potency,"activity change, negative = inhibition"
C#CCOCCOCCOCCNc1nc(N2CCN(C(=O)CCCCCCCCCCNC(=O)[C@@H](CCC(=O)O)n3cc(CCCCCN)nn3)CC2)nc(N2CCN(C(=O)CCCCCCCCCCNC(=O)[C@H](CCCCN)n3cc(C[C@@H](C)CC)nn3)CC2)n1,"inconclusive [inhibitor, single point]",–
C#CCOCCOCCOCCNc1nc(N2CCN(C(=O)CCCCCCCCCCNC(=O)[C@@H](CCSC)n3cc(CCO)nn3)CC2)nc(N2CCN(C(=O)CCCCCCCCCCNC(=O)[C@H](CO)n3cc(CCCCCN)nn3)CC2)n1,"inconclusive [inhibitor, single point]",–
COC(=O)[C@H](Cc1ccc(O)cc1)NC(=O)Cn1ccc(NC(=O)OCc2ccccc2)nc1=O,–,inactive: 8.4%
CC(N=C1NS(=O)(=O)c2ccccc21)C(=O)OCC(=O)N(C)C1CCS(=O)(=O)C1 (centres undefined),"inconclusive [inhibitor, single point]",–
O=C(NCCO)c1cc2cc(Cl)cc(Cl)c2oc1=O,"inconclusive [inhibitor, single point]",–
Cc1ccc(-c2cn3c(n2)sc2cc(C(=O)NCCC4=CCCCC4)ccc23)cc1,"inconclusive [inhibitor, full curve, poor fit]",–
Cc1ccc(CC(NC(=O)c2ccccc2)C(=O)NC(CC(C)C)C(=O)O)cc1 (centres undefined) (Bz-[Phe(4-Me)]-Leu-OH; configuration not given here),"inconclusive [inhibitor, partial curve, poor fit]",–
O=C1N(Cc2cccc(Cl)c2)C[C@@H]2C[C@@H](c3cccc4ncccc34)N3CCC[C@@]123,–,inactive: 1.62%
CNc1ccc([N+](=O)[O-])cc1C(=O)O,"inconclusive [inhibitor, single point]",–
COc1cc(-c2nc(Cc3c(F)cccc3Cl)no2)cc(OC)c1OC,"inconclusive [inhibitor, single point]",–
CC(c1ncncc1F)[C@](O)(Cn1cncn1)c1ccc(F)cc1F (some centres undefined),–,inactive: 1.59%
O=C1OC(c2ccc3c(c2)OCO3)=N/C1=C\c1ccc(C(=O)O)cc1,"inconclusive [inhibitor, single point]",–
COc1cccc(N=NC2C(=O)N(C(N)=S)N=C2C)c1 (centres undefined),–,inactive: 1.47%
Cc1ccc(S(=O)(=O)c2ccc(NN)cc2)cc1,"inconclusive [inhibitor, single point]",–
Cc1cc(C(=O)COC(=O)c2ccc([N+](=O)[O-])o2)c(C)n1CC1CCCO1 (centres undefined),–,inactive: 2.03%
CCCc1cc(=O)oc2cc(OCC(=O)NC(Cc3c[nH]c4ccc(O)cc34)C(=O)O)c(Cl)cc12 (centres undefined),"inconclusive [inhibitor, single point]",–
Cc1ccc(C2C(C#N)=C(N)Oc3n[nH]c(C)c32)cc1 (centres undefined),–,inactive: 35.5%
CCCCOC(=O)Nc1ccc(C(N)=O)cc1,–,inactive: 11.5%
COC(=O)C(C)N1C(=O)S/C(=C\c2ccc(-c3ccc(C(=O)O)cc3C)o2)C1=O (centres undefined),"inconclusive [inhibitor, single point]",–
Oc1ccc(-c2csc(-c3c[nH]c4ccccc34)n2)c(O)c1,–,inactive: 17.2%
Cc1nc2ccccc2nc(=O)c1NNc1ccccc1,"inconclusive [inhibitor, partial curve, poor fit]",–
CC(C)C1NC(C(=O)O)Cc2c1[nH]c1ccccc21 (centres undefined),"inconclusive [inhibitor, single point]",–
CC(C)CC1Nc2ccc(C(=O)NCCCN3CCOCC3)cc2NC1=O (centres undefined),"inconclusive [inhibitor, partial curve, poor fit]",–
